The source of these data is the RNAGym collection of RNA variant scans (doi:10.7554/elife.90254).

B1: OR4K15 (parent)
chain: GUUAACGGUCAUAGGCCAUGGAAACUAGGAGCACCAUUUCGCUGCCAGUGAAGAAAUGAACAAAGAAAAUCUGGGCCAGGCAGGCAUCAAAAGAAAUAGUCUUGCGCUCAACCAGAAAGUCUGUAAUCAUUUUAAGGGUA

The source gives no read counts; variants with many changes may rest on few reads.

Variants of B1 are the subject of this data set. The data set is described as follows: self-cleavage, relative activity (ratio to wild type); higher = more cleavage; in vitro, sequencing; the parent is a self-cleaving ribozyme.
For the variant GUUAACGGUCAUAGGCCAUGGAAACUAGGAGCACCAUUUCGCCGCCAGUGAAGAAGUGAACAAAGAAAAUCUGGGCCAGGCAGGCACCAAAAGAAAUAGUCUUGCGCCCAACCAGAAAGUCUGUAAUCAUUUUAAUGGUA, the self-cleavage was found to be 0.01.
The same measure for GUUAACGGUCAUAGGCCAUGGAAACUAGGAGCACCAUUUCGCCGCCAGUGAAGAAGUGAACAAAGAAAAUCUUGGCCAGGCAGGCAUCAAAAGAAAUAGUCUUGCGCUCAACCAGAAAGUCUGUAAUCAUUUUAAGGGUA: 0.13.
The value for GUUAACGGUCAUAGGCCAUGGAAACUAGGAGCACCAUUUCGCCGCCAGUGUAGAAAUGAACAAAGAUAAUCUGGGCCAGGCAGGCAUCAAAAGAAAUAGUCUUGCGCUCAACCAGAAAGUCUGUAAUCAUUUUAAGGGUA was 1.75.
The same measure for GUUAACGGUCAUAGGCCAUGGAAACUAGGAGCACCAUUUCGCCGCCAGUGAUGAAAUGAACAAAGAAAAUCUGGGCCAGGCAGGCAUCAAAAGAAAUAGUCUUGCGCCCAACCAGAAAGUCUGUAAUCAUUUUAAGGGUA: 0.02.
Regarding GUUAACGGUCAUAGGCCAUGGAAACUAGGAGCACCAUUUCGCCGCCAGUGAAGAAGUGAACAAAGAAAAUCUGGGCCAGGCGGGCAUCAAAAGAGAUAGUCUUGCGCUCAACCAGAGAGUCUGUAAACAUUUUAAGGGUA, the self-cleavage worked out at 1.63.
Consider GUUAACGGUCAUAGGCCAUGGAAACUAGGAGCACCAUUUCGCCGCCAGUGAAGAAAUGAACAGAGAAAAUCUGGGCCAGGCUGGCAUCAAAAGAAAUAGUCUUGCGCUCAACCAGAAAGUCUGUAAUCAUUUUAAGGGUA, for which the self-cleavage came out at 0.17.
The value for GUUAACGGUCAUAGGCCAUGGAAACUAGGAGCACCAUUUCGCCGCCAGUGAAGAAAUGAGCAAAGAAAAUCUGGGCCAGGCAGGCAUCAAGAGAAAUAGUCUUGCGCCCAGCCAGAAAGUCUGUAAUCAUUUCAAGGGUA was 0; that for GUUAACGGUCAUAGGCCAUGGAAACUAGGAGCACCAUUUCGCCGCCAGUGAAGAAAUGAACAAGGAAAAUCUGGGCCAGGCAGGCAUCAAAGGAAAUAGUCUUGCGCUCAACCAAAAAGUCUGUAAUCAUUUUAAGGGUA was 0.02.
In the case of GUUAACGGUCAUAGGCCAUGGAAACUAGGAGCACCAUUUCGCCGCCAGUGAGGAAAUGAACAAAGAAAAUCUGGGCCAGACUGGCAUCAAAACAAAUAGUCUUGCGCUCAACCAGAAAGUCUGUAAUCAUUUUAAGGGUA, the self-cleavage stood at 0.2.
Regarding GUUAACGGUCAUAGGCCAUGGAAACUAGGAGCACCAUUUCGCCGCCAGUGAAGAAAUGAGCAAAGAAAGUCUGGGCCAGGCAGGCAUCAAAAGAAAUAGUCUUGCGCUCAACCAGAAAGUCUGUAAUCAUUUUAAGGGUA, the self-cleavage stood at 2.01.
The same measure for GUUAACGGUCAUAGGCCAUGGAAACUAGGAGCACCAUUUCGCCGCCAGUGAAGGAAUGAACAAAGAAAAUCUGGGCCUGGCAGGCAUCAAAAGAAAUAGUCUUGCGCUCAACCAGAAAGUCUGUAAUCAUUUUAAGGGUA: 0.15.
As to GUUAACGGUCAUAGGCCAUGGAAACUAGGAGCACCAUUUCGCCGCCAGUGGAGAAAUGAACAAAGAAAAUCUGGGCUAUGCAGGCAACAAAAGAAAUAGUCUUGCGCUCUACCAGAAAGUCUGUAAUCAUUUUAAGGGUA, the self-cleavage was 0.13.
The value for GUUAACGGUCAUAGGCCAUGGAAACUAGGAGCACCAUUUCGCCGCCAGUGUAGAAAUGAACAAAGAAAAUCUGGGCCAGGCAGGCAUCAAAAGAAAUAGUCUUGCGCUCAACCAGUAAGCCUGUAAUCAUUUUAAGGGUA was 0.03.
The same measure for GUUAACGGUCAUAGGCCAUGGAAACUAGGAGCACCAUUUCGCCGCCAGUGGAGAAAUGAACAAAGAAAAUCUGGGCCAGGCAGGCAUCAAAAGAAAUAGUCUUGCGCUCAACCAGAAAGUCUGUAACCAUUUUAAGGGUA: 1.1; for GUUAACGGUCAUAGGCCAUGGAAACUAGGAGCACCAUUUCGCCGCCAGUGAAGAGAUGAACAAAGAAAAUCUGGGCCAGGCAGGCAUCAAAAGAAAUAGUCUUGCGCUCAACCAGAGAGUCUGUAAUCAUUUUAAGGGUA: 1.13.
The same measure for GUUAACGGUCAUAGGCCAUGGAAACUAGGAGCACCAUUUCGCCGCCAGUGAAGAAAUGAGCAAAGAAAAUCUGGGCCAGGCAGGCAUCAAAAGAAAUAGUCUUGCGCUCAACCAGAAAGUCUGUAGUCAUUUUAAGGGUA: 0.6.
In the case of GUUAACGGUCAUAGGCCAUGGAAACUAGGAGCACCAUUUCGCCGCCAGUGAAGAAAUGAACAGAGAGAAUCCGGGCCAGGCAGGCAUCAAAAGAAAUAGUCUUGCGCUCAACCAGAAAGUCUGUAAUCAUUUUAAGGGUA, the self-cleavage came to 0.25.
The value for GUUAACGGUCAUAGGCCAUGGAAACUAGGAGCACCAUUUCGCCGCCAGUGAAGAAAUGGACGAAGAGAAUCUGGGCCAGGCAGGCAUCGAAAGAAAUAGUUUUGCGCUCAACCAGAAAGUCUGUAGUCAUUUUAAGGGUA was 0; that for GUUAACGGUCAUAGGCCAUGGAAACUAGGAGCACCAUUUCGCCGCCAGUGAAGAGAUGAACAAAGAGAAUCUGGGCCAGGCAGGCAUCAAAAGAAAUAGUCUUGCGCUCAACCAGAAAGUCUGUAAUCAUUUUAAGGGUA was 1.78; that for GUUAACGGUCAUAGGCCAUGGAAACUAGGAGCACCAUUUCGCCGCCAGUGAAGGAAUGAACAAAGAGAAUCUGGGCCAGGCAGGCAUCAAAAGAAAUAGUCUUGUGCUCAACCAGGAAGUCUGUAAUCAUUUUAAGGGUA was 0.03.
The same measure for GUUAACGGUCAUAGGCCAUGGAAACUAGGAGCACCAUUUCGCCGCCAGUGAAGGAAUGAACAAAGAAAAUCUGGGCCAGGCAGGCAUCAAUAGAAAUAGUCUUGCGCUCAACCAGAGAGUCUGUAAUCAUUUUAAGGGUA: 1.58.
